Results as given in ChEMBL document CHEMBL4888484, “Replenishing the malaria drug discovery pipeline: Screening and hit evaluation of the MMV Hit Generation Library 1 (HGL1) against asexual blood stage Plasmodium falciparum ,using a nano luciferase reporter read-out” (2022).
Screen size: about 150,000 compounds; about 540 (0.36%) showed an effect of 50% or more. This is one part of the list.

Each compound was assayed on Plasmodium falciparum (assay: Primary screen in NF54 nanoGlo assay, in single point, at 2uM, 72h; a lower Z score goes with more inhibition). Conditions: timepoint 72 hour.
Assay type: functional, Erythrocyte
In the case of `Cc1ccc(F)c(CN(C)C(=O)Cc2cscn2)c1`, the “% Inhibition” value is reported as -9% and the Z score is reported as 1.16.
`CN(Cc1ccccc1-c1ccccc1)C(=O)CCn1ccccc1=O` was tested, and the “% Inhibition” value was 7% and the Z score was -0.94.
`O=S1(=O)CCN(c2ccc3cccc(Br)c3n2)CC1` was tested, and the “% Inhibition” value was 16% and the Z score was -1.88.
In the case of `Cc1oc(-c2ccc3ccccc3c2)nc1CN(CCO)[C@H]1CCS(=O)(=O)C1`, the “% Inhibition” value is reported as -11% and the Z score is reported as 1.37.
`COc1ccc2cc(C(=O)N(C)Cc3nc4ccccc4c(=O)[nH]3)n(C)c2c1` was tested, and the “% Inhibition” value was -12% and the Z score was 2.
For `CCC(NC[C@H](C)O)c1cccc(Cl)c1F` (some centres undefined), the “% Inhibition” value was 0% and the Z score was 0.03.
For `CC(C)C(=O)N1CCN(c2ccc3nc[nH]c(=O)c3n2)CC1`, the “% Inhibition” value was -6% and the Z score was 1.35.
`O=C1CCC[C@@H](C(=O)NCCc2nc(-c3ccc(Cl)cc3)n[nH]2)N1` was tested, and the “% Inhibition” value was -16% and the Z score was 1.93.
`CN(C)c1cc(N2CCn3nc(CNC(=O)C4CCC4)cc3C2)nc(N)n1` was tested, and the “% Inhibition” value was -9% and the Z score was 1.02.
With `O=C(NCc1ccc(N2CCC(O)CC2)c(F)c1)C1CC2CCCCC2N1` (centres undefined) the “% Inhibition” value was 1% and the Z score was -0.12.
With `Cc1oc(-c2ccc(Cl)cc2)nc1C(=O)NC[C@H](C)c1nc2ccccc2n1C(F)F` the “% Inhibition” value was 2% and the Z score was -0.26.
For `CCNc1cc(NCCNS(=O)(=O)c2ccc3ccccc3c2)nc(C)n1`, the “% Inhibition” value was 12% and the Z score was -1.56.
`CC1CCC(N2C[C@@H](C(=O)NS(=O)(=O)CC3CCC3)CC2=O)CC1` (some centres undefined) was tested, and the “% Inhibition” value was -4% and the Z score was 0.7.
`O[C@H]1CCCN(Cc2ccccc2OCc2c(F)cccc2Cl)CC1` was tested, and the “% Inhibition” value was -23% and the Z score was 2.21.
`CC(=O)N1CCCN(Cc2ccnc(NC(=O)OC(C)(C)C)c2)CC1` was tested, and the “% Inhibition” value was -6% and the Z score was 1.1.
With `COCCn1cnc2cc(NC(=O)C3CCCCC3)cc(C(=O)N3CCNC(=O)C3)c21` the “% Inhibition” value was 3% and the Z score was -0.55.
With `CC(C)(C)NC(=O)Nc1ccc(Cl)cc1F` the “% Inhibition” value was 1% and the Z score was -0.22.
`CC(C)(CCS(C)(=O)=O)NC(=O)Nc1ccc(Cl)c(F)c1` was tested, and the “% Inhibition” value was 2% and the Z score was -0.26.
For `Cc1oc(C(C)C)cc1C(=O)NC[C@H]1CCCN(S(C)(=O)=O)C1`, the “% Inhibition” value was -10% and the Z score was 1.15.
In the case of `CN(CC(=O)N1CCN(S(=O)(=O)c2cccc(F)c2)CC1)C1CCCCCC1`, the “% Inhibition” value is reported as -16% and the Z score is reported as 2.65.
In the case of `OC1(CCCNC2CCN(C3CC3)C(c3ccccc3)C2)CCC1` (centres undefined), the “% Inhibition” value is reported as -8% and the Z score is reported as 1.49.
For `Cc1ccc(-n2nc(C)c3nc(CCC(=O)NCc4ccc5c(c4)OCO5)c(=O)n(C)c32)cc1`, the “% Inhibition” value was -5% and the Z score was 0.66.
In the case of `C[C@@](CO)(NCC(=O)NCC1CCC1)C1CCCCC1`, the “% Inhibition” value is reported as -9% and the Z score is reported as 1.12.
`NC(=O)C1CCN(C(=O)CNc2ccc3ccccc3c2)CC1` was tested, and the “% Inhibition” value was 1% and the Z score was -0.17.
With `CCOc1ccc(NC(=O)N2C[C@@H]3CCCN3c3ccccc32)cc1` the “% Inhibition” value was -8% and the Z score was 1.04.
In the case of `COCCNC(=O)NC(=O)COc1ccc(Cl)cc1Br`, the “% Inhibition” value is reported as -11% and the Z score is reported as 1.42.
With `COc1ccc(CNC(=O)N2CCCCCNC(=O)[C@@H]3CCCC[C@@H]32)cc1` the “% Inhibition” value was -8% and the Z score was 1.06.
With `Cc1nc(CN2C[C@@H]3CC[C@H]2CN(C(=O)c2cnccn2)C3)c2ccccn12` the “% Inhibition” value was -10% and the Z score was 1.63.
`COc1ccc2c(c1)N1CCN(c3cnccn3)CC1C(C(=O)NCC1CC1)C2` (centres undefined) was tested, and the “% Inhibition” value was 11% and the Z score was -1.23.
`CC(C)C(=O)N1CCN(c2ccc(NC(=O)c3ccc4c(c3)OCCO4)cc2Cl)CC1` was tested, and the “% Inhibition” value was 2% and the Z score was -0.34.
For `COc1cc(OC)cc(C(O)CNC(C)C2(C)CCCO2)c1` (centres undefined), the “% Inhibition” value was -19% and the Z score was 3.36.
In the case of `Cc1ncsc1CN1CCC(n2c(C)nn(C)c2=O)CC1`, the “% Inhibition” value is reported as 7% and the Z score is reported as -1.01.
With `N#CC1C(c2cccs2)C(C(N)=O)C(=O)NC1(O)c1ccccc1` (centres undefined) the “% Inhibition” value was -4% and the Z score was 0.43.
For `COc1ccc(N(C(=O)c2ccccc2F)C2(C(=O)Nc3c(C)cccc3C)CCCC2)cc1`, the “% Inhibition” value was 4% and the Z score was -0.56.
`CC(=O)N1CCN(C(=O)C2CC3CCCC(C2)C3=O)CC1` (centres undefined) was tested, and the “% Inhibition” value was 5% and the Z score was -0.43.
`CNC(=O)c1nnsc1N1CCN(Cc2ccccc2)CC1` was tested, and the “% Inhibition” value was -36% and the Z score was 4.21.
In the case of `O=C(Nc1ccc2nccn2c1)N1Cc2cccnc2N2CCC[C@@H]2C1`, the “% Inhibition” value is reported as -3% and the Z score is reported as 0.58.
`CCN(CC(=O)Nc1ccc2c(c1)OCCO2)C(=O)CCc1c(C)noc1Cl` was tested, and the “% Inhibition” value was 21% and the Z score was -2.61.
In the case of `CCCN(C)C(=O)c1cc2cn(C(C)C)cc2s1`, the “% Inhibition” value is reported as -12% and the Z score is reported as 2.38.
In the case of `Cc1nnc(CN2CCO[C@H](c3ccc(S(C)(=O)=O)cc3)C2)s1`, the “% Inhibition” value is reported as -14% and the Z score is reported as 1.78.
`Cc1ccc(C)c([C@@H](NC(=O)c2cc(C)nc(N)n2)c2cccnc2)c1` was tested, and the “% Inhibition” value was -2% and the Z score was 0.39.
`O=C(NC1CC2CCC1O2)c1cc(Cl)cc(F)c1Br` (centres undefined) was tested, and the “% Inhibition” value was -2% and the Z score was 0.44.
